Experimental data taken from publication PMC4336329 (PLoS ONE, 2015).
In all, about 310,000 compounds went through this assay and about 2,200 (0.71%) showed an effect of 50% or more. The effect is printed as a negative number. This is one part of the list.

molecular target: human ether-à-go-go-related gene (hERG) potassium channel (human, UniProt Q12809); experiment: primary screen, population patch clamp on CHO cells stably expressing hERG
Sequence (Q12809 whole entry, looked up): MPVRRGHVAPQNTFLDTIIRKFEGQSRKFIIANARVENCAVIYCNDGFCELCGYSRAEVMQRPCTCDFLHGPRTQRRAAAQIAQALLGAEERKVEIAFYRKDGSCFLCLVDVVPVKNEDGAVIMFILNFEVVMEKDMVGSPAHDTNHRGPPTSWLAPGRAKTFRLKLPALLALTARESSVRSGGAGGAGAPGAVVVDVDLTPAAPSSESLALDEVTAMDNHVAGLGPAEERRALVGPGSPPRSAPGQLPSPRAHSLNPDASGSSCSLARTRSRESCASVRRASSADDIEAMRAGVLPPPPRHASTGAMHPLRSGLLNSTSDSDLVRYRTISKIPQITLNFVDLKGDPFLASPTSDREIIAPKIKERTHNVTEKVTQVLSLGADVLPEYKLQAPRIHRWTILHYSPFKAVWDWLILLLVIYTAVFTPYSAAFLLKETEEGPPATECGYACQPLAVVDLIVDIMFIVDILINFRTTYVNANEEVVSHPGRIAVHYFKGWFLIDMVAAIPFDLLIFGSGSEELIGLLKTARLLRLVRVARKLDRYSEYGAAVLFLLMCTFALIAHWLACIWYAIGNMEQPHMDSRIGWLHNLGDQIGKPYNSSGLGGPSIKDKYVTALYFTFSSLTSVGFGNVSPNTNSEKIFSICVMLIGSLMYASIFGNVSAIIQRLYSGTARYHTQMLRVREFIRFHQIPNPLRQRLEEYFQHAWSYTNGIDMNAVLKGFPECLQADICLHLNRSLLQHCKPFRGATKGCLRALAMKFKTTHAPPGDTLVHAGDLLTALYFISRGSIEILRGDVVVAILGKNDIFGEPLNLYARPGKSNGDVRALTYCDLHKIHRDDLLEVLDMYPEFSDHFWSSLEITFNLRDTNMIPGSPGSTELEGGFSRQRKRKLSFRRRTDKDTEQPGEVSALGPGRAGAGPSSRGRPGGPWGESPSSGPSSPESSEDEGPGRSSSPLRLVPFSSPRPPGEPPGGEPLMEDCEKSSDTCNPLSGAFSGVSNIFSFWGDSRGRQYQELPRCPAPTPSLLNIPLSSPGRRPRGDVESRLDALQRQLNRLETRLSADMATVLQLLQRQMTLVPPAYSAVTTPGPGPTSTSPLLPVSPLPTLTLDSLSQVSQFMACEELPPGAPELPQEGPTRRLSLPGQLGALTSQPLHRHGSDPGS

SMILES	hERG current change (%, negative = inhibition) at 1uM [%]
Cc1nc2nc(-c3ccco3)[nH]n2c(=O)c1C	2.55
O=C(CCN1C(=O)/C(=C/c2ccco2)SC1=S)Nc1ccc(O)cc1C(=O)O	4.86
Cc1cc(C)c(-c2csc(NC(=O)c3n[nH]c(=O)c4ccccc34)n2)c(C)c1	-0.562
Cc1cc(C)nc(SCc2n[nH]c(=S)n2C)n1	7.9
CCC(C)NC(=O)COc1ccc(Br)c(C)c1 (stereo not drawn)	10.6
CC1Sc2ccccc2N(CC(=O)N(C(C)C)C(C)C)C1=O (stereo not drawn)	10.5
CCOC(=O)C1CCN(c2nc3ccccc3nc2C(C#N)C(=O)OCCOC)CC1 (stereo not drawn)	11
Nc1cccc(S(=O)(=O)Nc2ccccc2)c1	15.5
CC(O)(CS(=O)(=O)Cc1ccccc1Cl)C(=O)Nc1cccc(C(F)(F)F)c1 (stereo not drawn)	-10.7
Clc1cccc(CN2CCSCC2)c1Cl	13.4
Cc1ccc(/C=C/C(=O)N2CCN(c3cccc(C(F)(F)F)c3)CC2)cc1	3.99
COc1ccc2cc(CCNC(=O)CC(C)(C)C)c(=O)[nH]c2c1	1.62
Cn1c(NCc2ccco2)nc2c1c(=O)n(Cc1ccc(Cl)c(Cl)c1)c(=O)n2C	-5.94
Cc1csc(NC(=O)C2CCCO2)n1 (stereo not drawn)	-3.56
CCOC(=O)c1sc(C)c2c(=O)n(CCc3ccccc3)nnc12	13.4
Cc1c(Cc2ccccc2)c(=O)oc2c(C)c(OCC(=O)NCc3ccccn3)ccc12	14.7
CN(Cc1ccco1)C(=O)C1CCN(c2nnc(-n3cccc3)s2)CC1	-14.4
CC1(C)CC(=O)C=C(Nc2ccccc2F)C1	-0.807
NSc1nc(N)c2nc(-c3ccccc3)c(-c3ccccc3)nc2n1	13
CCC1(CC)C(=O)NN(c2ccccc2)C1=O	6.26
COc1ccc(S(=O)(=O)n2nc(OCc3cccs3)cc2N)cc1	-7.53
Cc1ccc(C2(C)NC(=O)N(CC(=O)NC(=O)NC(C)C)C2=O)cc1 (stereo not drawn)	8.86
N#C/C(=C\c1ccc(OCc2ccc(Br)cc2)cc1)C(=O)Nc1cccc(C(=O)O)c1	15.4
CN(C)c1ccc(S(=O)(=O)N2CCCCC2)cc1NC(=O)CCNC(=O)c1ccco1	9.59
O=C(CSCc1cccc(Cl)c1)Nc1ccccc1-c1ccccc1	-2.3
Cc1cccc(NC(=O)COc2coc(CN3CCN(Cc4ccccc4)CC3)cc2=O)c1	-28.3
O=C(NCc1ccc(Cl)cc1)C1CCCN(c2ncnc3c2nc2n3CCCCC2)C1 (stereo not drawn)	-4.72

SMILES	hERG current change (%, negative = inhibition) at 1uM [%]
C=CCn1c(SCC(=O)Nc2ccc(C(=O)O)cc2)nnc1-c1cccnc1	14.8
Cc1ccc(NC(=O)CN(C)CC(=O)Nc2ccc(F)c(Cl)c2)cc1.O=C(O)C(=O)O	4.7
CN1C(=O)N(C)C(=O)C2(Cc3ccccc3N3CCOCC32)C1=O (stereo not drawn)	8.98
CC(C)(C)CC(=O)OCC(=O)Nc1cc(C(C)(C)C)nn1-c1ccccc1	-12.9
COCCN1C(=O)C(=O)/C(=C(/O)c2ccc(C)cc2)C1c1ccccn1 (stereo not drawn)	22
Fc1ccc(N2CCN(C3CCC(c4ccccc4)CC3)CC2)cc1 (stereo not drawn)	11.8
CCOC(=O)c1nnc(-c2ccccc2)nc1Oc1ccc(Cl)cc1	-18.4
O=C1NCC(COCc2ccco2)O1 (stereo not drawn)	15.8
Clc1c(CSc2nc3ccccc3o2)nc2ccccn12	9.77
CN(Cc1ccccc1)C(=O)c1ccc(NC(=O)Cc2cccc(NC(=O)C3CCN(C(=O)C4CCC4)CC3)c2)cc1	8.22
O=C(Nc1cc(Sc2nc3ccccc3s2)cc([N+](=O)[O-])c1)c1cccc(F)c1F	6.89
CC(C)CC1Nc2ncnc(N3CCN(c4ccccc4)CC3)c2N(Cc2ccccc2)C1=O.O=C(O)C(F)(F)F (stereo not drawn)	5.28
Cc1nnc(SCC(=O)N2CCOCC2)c2ccccc12	-0.884
O=C(N/N=C/c1cccnc1)c1ccc2ccccc2c1O	14.3
Cc1cc(Cl)ccc1OCC(=O)OCC(=O)NC1CCS(=O)(=O)C1 (stereo not drawn)	-2.3
COc1ccc2c(c1)C1=NN(/C(C)=C/C(C)=O)C(c3ccc(F)cc3)C1CC2 (stereo not drawn)	2.13
CC(Oc1ccccc1F)C(=O)NNC(=O)C1CC(=O)N(c2ccc3c(c2)OCCO3)C1 (stereo not drawn)	4.26
COc1cccc(-c2nnc3sc(-c4ccccn4)nn23)c1	-4.31
CCOC(=O)C1CCN(C(=O)CC(C)S(=O)(=O)c2ccc3c(c2)NC(=O)CO3)CC1 (stereo not drawn)	20.8
COC(=O)[C@@H]1C[C@H]2CC[C@H](O)C[C@H]2N1Cc1ccccc1OS(=O)(=O)c1ccc(C)cc1	13.1
CC(NC(=O)C1C(=O)N(CCO)C2(C)CC1c1ccccc1O2)c1ccccc1 (stereo not drawn)	-4.93
Cc1ccc(NC(=S)NNC(=O)c2ccc(N3CCOCC3)c([N+](=O)[O-])c2)cc1Cl	4.56
CCN(CC)CCCn1c2c(c(SCC(=O)Nc3cccc(C(C)=O)c3)nc1=O)CCC2	-14.9
CC(=O)C12CC(C)=C(C)CC1CC1C3CCC4=CC(=O)CCC4(C)C3CCC12C (stereo not drawn)	11.1
N#Cc1c(NCCN)nc(-c2ccco2)c2c1CCCC2	-6.44
Cc1nc2ncnn2c(C)c1CCC(=O)N1CCN(C(=O)c2ccco2)CC1	4.74
Cc1ccc2cc(C(c3nnnn3Cc3ccccc3)N3CCN(c4ccccc4)CC3)c(=O)[nH]c2c1 (stereo not drawn)	0.344
